Assay results reported in paper PMC9625839 (Journal of medicinal chemistry, 2021).

Target: high-affinity mouse IL2 receptor on CTLL-2 cells (mouse (endogenous in CTLL-2))
Assay: cell-based or functional assay

| CTLL-2 cell proliferation (WST-1 absorbance), EC50 | CTLL-2 cell proliferation, EC50 in the absence of TTR (panel C) | CTLL-2 cell proliferation, EC50 in the presence of 50 nM TTR | Binder |
| --- | --- | --- | --- |
| 0.51 ng/mL | 0.56 ng/mL | 0.5 ng/mL | TLHE-rIL2 (rIL2 conjugated at cysteine 3 to the small-molecule transthyretin ligand TLHE (3)) (ligand, cysteine 3 conjugated to TLHE (3) by thiol-maleimide reaction (+837.43)) not shown |
| 0.42 ng/mL |  |  | recombinant interleukin 2 (rIL2) (ligand) not shown |
